# Reference: the supplement of paper PMC8728848
# Some of the results follow.
# B1: LcH (Lens culinaris), P02870 (protein)
# chain: TETTSFSITKFSPDQQNLIFQGDGYTGKEGLTLTKVSKETGGRALYSTPIHIWDRDTVNVANFVTNGSQVFRESPNGYNVADGFTFFIAPVDTKPQTGGGYLGVFYNGKEYDKTSQTVAVEFDTFYNAAWDPSNKERHIGIDVNSIKSVNTKSWNLQNGVTSYTLNEVVPLKDVVPEWVRIGFSATTGAEFAAQEVHSWSFNSQLGHTSKS
# What was measured:
# Test in all cases: glycan array binding signal (z-score within array); higher = stronger binding
# Conditions in all cases: glycan notation: IUPAC condensed, linker removed
# [1] = target: Gal(b1-4)GlcNAc(a1-6)Gal(b1-4)GlcNAc
# Summary of the method: (§1)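 Glycan array data came from 3228 arrays in the Consortium for Functional Glycomics database, and only arrays with an available protein sequence were kept. Glycan names were put into IUPAC-condensed notation, and columns mapping to the same glycan were averaged. The binding signal is a within-array Z-score, averaged across arrays of one protein sequence run at different concentrations or buffers and across linkers. A negative Z-score can be read as non-binding.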
# [2] = target: Gal(b1-4)GlcNAc(b1-2)Man(a1-3)Man(b1-4)GlcNAc(b1-4)GlcNAc
# Summary of the method: as §1
# [3] = target: Gal(b1-4)GlcNAc(b1-2)Man(a1-3)[Gal(b1-4)GlcNAc(b1-2)Man(a1-6)]Man(b1-4)GlcNAc(b1-4)GlcNAc
# Summary of the method: as §1
# [4] = target: Gal(b1-4)GlcNAc(b1-2)Man(a1-3)[Gal(b1-4)GlcNAc(b1-2)Man(a1-6)]Man(b1-4)GlcNAc(b1-4)[Fuc(a1-6)]GlcNAc
# Summary of the method: as §1
# [5] = target: Gal(b1-4)GlcNAc(b1-2)Man(a1-3)[Man(a1-6)]Man(b1-4)GlcNAc(b1-4)GlcNAc
# Summary of the method: as §1
# [6] = target: Gal(b1-4)GlcNAc(b1-2)Man(a1-6)Man(b1-4)GlcNAc(b1-4)GlcNAc
# Summary of the method: as §1
# [7] = target: Gal(b1-4)GlcNAc(b1-2)Man(a1-6)[Man(a1-3)]Man(b1-4)GlcNAc(b1-4)GlcNAc
# Summary of the method: as §1
# [8] = target: Gal(b1-4)GlcNAc(b1-2)[Gal(b1-4)GlcNAc(b1-4)]Man(a1-3)[Gal(b1-4)GlcNAc(b1-2)Man(a1-6)]Man(b1-4)GlcNAc(b1-4)GlcNAc
# Summary of the method: as §1
# [9] = target: Gal(b1-4)GlcNAc(b1-3)Gal(b1-3)GlcNAc
# Summary of the method: as §1
# [10] = target: Gal(b1-4)GlcNAc(b1-3)Gal(b1-4)Glc
# Summary of the method: as §1
# [11] = target: Gal(b1-4)GlcNAc(b1-3)Gal(b1-4)GlcNAc
# Summary of the method: as §1
# [12] = target: Gal(b1-4)GlcNAc(b1-3)Gal(b1-4)GlcNAc(b1-3)Gal(b1-4)GlcNAc
# Summary of the method: as §1
# [13] = target: Gal(b1-4)GlcNAc(b1-3)Gal(b1-4)[Fuc(a1-3)]GlcNAc(b1-3)Gal(b1-4)[Fuc(a1-3)]GlcNAc
# Summary of the method: as §1
# [14] = target: Gal(b1-4)GlcNAc(b1-3)GalNAc
# Summary of the method: as §1
# [15] = target: Gal(b1-4)GlcNAc(b1-3)[Gal(b1-4)GlcNAc(b1-6)]Gal(b1-4)GlcNAc
# Summary of the method: as §1
# [16] = target: Gal(b1-4)GlcNAc(b1-3)[GlcNAc(b1-6)]Gal(b1-4)GlcNAc
# Summary of the method: as §1
# [17] = target: Gal(b1-4)GlcNAc(b1-6)Gal(b1-4)GlcNAc
# Summary of the method: as §1
# [18] = target: Gal(b1-4)GlcNAc(b1-6)Gal(b1-4)GlcNAc(b1-6)GalNAc
# Summary of the method: as §1
# [19] = target: Gal(b1-4)GlcNAc(b1-6)GalNAc
# Summary of the method: as §1
# [20] = target: Gal(b1-4)GlcNAc(b1-6)[Gal(b1-3)]GalNAc
# Summary of the method: as §1
# [21] = target: Gal3S(b1-3)GalNAc
# Summary of the method: as §1
# [22] = target: Gal3S(b1-3)GlcNAc
# Summary of the method: as §1
# [23] = target: Gal3S(b1-3)[Fuc(a1-4)]GlcNAc
# Summary of the method: as §1
# [24] = target: Gal3S(b1-4)Glc
# Summary of the method: as §1
# [25] = target: Gal3S(b1-4)Glc6S
# Summary of the method: as §1
# [26] = target: Gal3S(b1-4)GlcNAc
# Summary of the method: as §1
# [27] = target: Gal3S(b1-4)GlcNAc6S
# Summary of the method: as §1
# [28] = target: Gal3S(b1-4)[Fuc(a1-3)]Glc
# Summary of the method: as §1
# [29] = target: Gal3S4S(b1-4)GlcNAc
# Summary of the method: as §1
# [30] = target: Gal3S6S(b1-4)GlcNAc
# Summary of the method: as §1
# [31] = target: Gal3S6S(b1-4)GlcNAc6S
# Summary of the method: as §1
# [32] = target: Gal4S(b1-4)GlcNAc
# Summary of the method: as §1
# [33] = target: Gal4S6S(b1-4)GlcNAc
# Summary of the method: as §1
# [34] = target: Gal6S(b1-4)Glc
# Summary of the method: as §1
# [35] = target: Gal6S(b1-4)Glc6S
# Summary of the method: as §1
# [36] = target: Gal6S(b1-4)GlcNAc
# Summary of the method: as §1
# [37] = target: Gal6S(b1-4)GlcNAc6S
# Summary of the method: as §1
# [38] = target: GalNAc(a1-3)Gal
# Summary of the method: as §1
# [39] = target: GalNAc(a1-3)GalNAc
# Summary of the method: as §1
# [40] = target: GalNAc(b1-3)Gal
# Summary of the method: as §1
# [41] = target: GalNAc(b1-3)Gal(a1-4)Gal(b1-4)GlcNAc
# Summary of the method: as §1
# [42] = target: GalNAc(b1-3)Gal(a1-4)Gal(b1-4)GlcNAc(b1-3)Gal(b1-4)Glc
# Summary of the method: as §1
# [43] = target: GalNAc(b1-3)GalNAc
# Summary of the method: as §1
# [44] = target: GalNAc(b1-4)GlcNAc
# Summary of the method: as §1
# [45] = target: GalNAc(b1-4)GlcNAc(b1-2)Man(a1-3)[GalNAc(b1-4)GlcNAc(b1-2)Man(a1-6)]Man(b1-4)GlcNAc(b1-4)GlcNAc
# Summary of the method: as §1
binder,measurement,setting,value
B1,glycan array binding signal (z-score),[1],-0.145
same,glycan array binding signal (z-score),[2],-0.098
same,glycan array binding signal (z-score),[3],-0.093
same,glycan array binding signal (z-score),[4],9.53
same,glycan array binding signal (z-score),[5],-0.099
same,glycan array binding signal (z-score),[6],-0.105
same,glycan array binding signal (z-score),[7],-0.132
same,glycan array binding signal (z-score),[8],-0.13
same,glycan array binding signal (z-score),[9],-0.127
same,glycan array binding signal (z-score),[10],-0.107
same,glycan array binding signal (z-score),[11],-0.117
same,glycan array binding signal (z-score),[12],-0.116
same,glycan array binding signal (z-score),[13],-0.081
same,glycan array binding signal (z-score),[14],-0.122
same,glycan array binding signal (z-score),[15],-0.138
same,glycan array binding signal (z-score),[16],-0.144
same,glycan array binding signal (z-score),[17],-0.132
same,glycan array binding signal (z-score),[18],-0.094
same,glycan array binding signal (z-score),[19],-0.148
same,glycan array binding signal (z-score),[20],-0.135
same,glycan array binding signal (z-score),[21],-0.046
same,glycan array binding signal (z-score),[22],-0.117
same,glycan array binding signal (z-score),[23],-0.137
same,glycan array binding signal (z-score),[24],-0.11
same,glycan array binding signal (z-score),[25],-0.122
same,glycan array binding signal (z-score),[26],-0.102
same,glycan array binding signal (z-score),[27],-0.12
same,glycan array binding signal (z-score),[28],-0.137
same,glycan array binding signal (z-score),[29],-0.132
same,glycan array binding signal (z-score),[30],-0.086
same,glycan array binding signal (z-score),[31],-0.135
same,glycan array binding signal (z-score),[32],-0.125
same,glycan array binding signal (z-score),[33],-0.122
same,glycan array binding signal (z-score),[34],-0.137
same,glycan array binding signal (z-score),[35],-0.08
same,glycan array binding signal (z-score),[36],-0.082
same,glycan array binding signal (z-score),[37],-0.076
same,glycan array binding signal (z-score),[38],-0.107
same,glycan array binding signal (z-score),[39],-0.119
same,glycan array binding signal (z-score),[40],-0.101
same,glycan array binding signal (z-score),[41],-0.149
same,glycan array binding signal (z-score),[42],-0.114
same,glycan array binding signal (z-score),[43],-0.122
same,glycan array binding signal (z-score),[44],-0.123
same,glycan array binding signal (z-score),[45],-0.112
